Source: a compilation of properties of binary mixtures (doi:10.1016/j.molliq.2011.09.019)
Some of these densities may be calculated back from excess volumes.

Assay: xn = mol fraction of the nth substance listed
Settings: 101 kPa

CS(C)=O + CC(=O)[O-].CC[NH2+]CC
x1 = 1
Settings | mass density [kg/m3]
298.15 K | 1095.4
303.15 K | 1092.4
308.15 K | 1086.1

CC(=O)[O-].CC[NH2+]CC + CS(C)=O
mass density [kg/m3]
Settings | 298.15 K | 303.15 K | 308.15 K
x1 = 0.0144 | 1094 | 1091 | 1084.8
x2 = 0 | 1021.5 | 1016.5 | 1011.9
x2 = 0.0253 | 1022.6 | – | 1013.1
x2 = 0.0627 | 1024.3 | 1019.5 | 1014.9
x2 = 0.1132 | 1026.6 | 1021.9 | 1017.3
x2 = 0.1535 | 1028.6 | 1023.9 | –
x2 = 0.2023 | – | 1026.4 | 1021.7
x2 = 0.2458 | 1033.3 | 1028.8 | 1024
x2 = 0.2814 | – | 1030.8 | –
x2 = 0.3244 | 1037.8 | 1033.3 | 1028.5
x2 = 0.3701 | 1040.5 | 1036.1 | 1031.2
x2 = 0.4864 | 1048.3 | 1044 | 1039
x2 = 0.5897 | – | 1052.1 | 1046.9
x2 = 0.66 | – | 1058.2 | 1052.8
x2 = 0.7253 | 1068 | – | 1058.8
x2 = 0.7851 | – | 1070.2 | 1064.7
x2 = 0.8406 | 1079.2 | – | 1070.3
x2 = 0.8923 | 1084.4 | 1081.3 | 1075.5
x2 = 0.9248 | 1087.7 | – | 1078.9
x2 = 0.956 | 1090.9 | 1087.9 | 1081.9
x2 = 0.971 | – | 1089.5 | 1083.3
